The results in this text go back to a collection of fitness landscapes (doi:10.1126/science.1257360).

First the molecules themselves.
B1: PhoQ; a variant is named by its letters at X, in order, P23837 (parent)
chain: MKKLLRLFFPLSLRVRFLLATAAVVLVLSLAYGMVALIGYSVSFDKTTFRLLRGESNLFYTLAKWENNKLHVELPENIDKQSPTMTLIYDENGQLLWAQRDVPWLMKMIQPDWLKSNGFHEIEADVNDTSLLLSGDHSIQQQLQEVREDDDDAEMTHSVAVNVYPATSRMPKLTIVVVDTIPVELKSSYMVWSWFIYVLSANLLLVIPLLWVAAWWSLRPIEALAKEVRELEEHNRELLNPATTRELTSLVRNLNRLLKSERERYDKYRTTLTDLTHSLKTPLXXLQXXLRSLRSEKMSVSDAEPVMLEQISRISQQIGYYLHRASMRGGTLLSRELHPVAPLLDNLTSALNKVYQRKGVNISLDISPEISFVGEQNDFVEVMGNVLDNACKYCLEFVEISARQTDEHLYIVVEDDGPGIPLSKREVIFDRGQRVDTLRPGQGVGLAVAREITEQYEGKIVAGESMLGGARMEVIFGRQHSAPKDE

Some of the results follow.

The experiment covers variants of B1. Put plainly: enrichment ratio after two sorts for PhoP signalling (ratio (wild type AVST 3.29)); higher = more functional. The settings on record: with PhoP (E. coli).
In the case of ANHM, the enrichment ratio was not above 0.25.

Turning to VCMP, the enrichment ratio was not above 0.25. The figure for IHII is not above 0.25. Turning to HCKG, the enrichment ratio is not above 0.25.

For YAIY, the enrichment ratio was not above 0.25. HDLD: the enrichment ratio is not above 0.25.

As for DCPT, the enrichment ratio was not above 0.25. As for NTLH, the enrichment ratio was not above 0.25. Turning to AKFF, the enrichment ratio is not above 0.25.

In the case of NDLW, the enrichment ratio was not above 0.25. Turning to GIGE, the enrichment ratio is not above 0.25. Take VSYR: the enrichment ratio is not above 0.25. With SKLT, the enrichment ratio was determined as 4.23. In the case of GFLH, the enrichment ratio is not above 0.25. Turning to GAVH, the enrichment ratio was not above 0.25. With RALV, the enrichment ratio is not above 0.25. In the case of NFQN, the enrichment ratio is not above 0.25.

For PRNR, the enrichment ratio was not above 0.25. As to SMNG, the enrichment ratio was not above 0.25. Take ILAS: the enrichment ratio is not above 0.25. For the variant RDLM, the enrichment ratio was not above 0.25.

In the case of NEIL, the enrichment ratio is not above 0.25.

As to INYD, the enrichment ratio was not above 0.25. The figure for DVYH is not above 0.25. Take RVNL: the enrichment ratio is not above 0.25. On to WAYM, for which the enrichment ratio is not above 0.25. For the variant TREM, the enrichment ratio was not above 0.25. WWSG: the enrichment ratio is not above 0.25. The result for NEVP reads not above 0.25; that for QCHN, not above 0.25; that for FLVW, not above 0.25. Consider MSQH, for which the enrichment ratio was not above 0.25. As for TVCS, the enrichment ratio was 11.4. The figure for ELNV is not above 0.25; for DQCM it is not above 0.25. For WHRN, the enrichment ratio was not above 0.25. Regarding RCYY, the enrichment ratio is not above 0.25. Take YPMV: the enrichment ratio was not above 0.25.

Turning to RWAF, the enrichment ratio was not above 0.25. PCAE: the enrichment ratio was not above 0.25. Take PMFL: the enrichment ratio was not above 0.25. For TPPP, the enrichment ratio was not above 0.25. For the variant IMSD, the enrichment ratio was not above 0.25.

In the case of LNGQ, the enrichment ratio was not above 0.25.

Consider VRRQ, for which the enrichment ratio is not above 0.25. In the case of HNGM, the enrichment ratio stood at 3.65. With LWIV, the enrichment ratio was not above 0.25. With WTIP, the enrichment ratio was not above 0.25. As for GNWL, the enrichment ratio is not above 0.25. WDWM: the enrichment ratio was not above 0.25. For PPFR, the enrichment ratio was not above 0.25. As for SNHD, the enrichment ratio was not above 0.25. Consider FRDK, for which the enrichment ratio is not above 0.25. With LMHD, the enrichment ratio is not above 0.25.

For the variant APMT, the enrichment ratio is not above 0.25. With YRSC, the enrichment ratio is not above 0.25. For the variant SLFP, the enrichment ratio is not above 0.25.

Consider EKNI, for which the enrichment ratio is not above 0.25.

QINH: the enrichment ratio was found to be 1.69. As for HWWV, the enrichment ratio was not above 0.25. For the variant PGNA, the enrichment ratio was not above 0.25. On to RGVT, for which the enrichment ratio is not above 0.25. For the variant TYDT, the enrichment ratio was not above 0.25. For the variant KVLW, the enrichment ratio is not above 0.25. Take VWRF: the enrichment ratio was not above 0.25. The figure for QHFY is not above 0.25; for WYAE it is not above 0.25; for DRNF it is not above 0.25. The figure for RMMV is not above 0.25; for PLGH it is not above 0.25; for LSIV it is not above 0.25. In the case of LQAD, the enrichment ratio is not above 0.25.

DQPK: the enrichment ratio was not above 0.25. The figure for YQVP is not above 0.25; for MQFP it is not above 0.25. The result for SKYM reads not above 0.25; that for ESWQ, not above 0.25; that for VREL, not above 0.25. Turning to PFEW, the enrichment ratio is not above 0.25. In the case of YVNW, the enrichment ratio was not above 0.25. For the variant DNRE, the enrichment ratio is not above 0.25. The figure for TAWF is 5.36. As for PRHT, the enrichment ratio was not above 0.25. Take SFVY: the enrichment ratio is not above 0.25.

Regarding MQVN, the enrichment ratio is not above 0.25. For MERD, the enrichment ratio is not above 0.25. As to EEIF, the enrichment ratio was not above 0.25. The result for MDVE reads not above 0.25.

Regarding YHDH, the enrichment ratio is not above 0.25. Turning to FMCF, the enrichment ratio is not above 0.25. The result for MCCF reads 4.87; that for EMVN, not above 0.25; that for DLMI, not above 0.25.

Consider DMVY, for which the enrichment ratio was not above 0.25.

Regarding MDLG, the enrichment ratio was not above 0.25. MKAN: the enrichment ratio was not above 0.25. The figure for PFDM is not above 0.25; for NQNM it is not above 0.25.

In the case of ANLA, the enrichment ratio turned out to be 5.31. Regarding KFWA, the enrichment ratio was not above 0.25. For the variant RPVC, the enrichment ratio is not above 0.25. As for DHYN, the enrichment ratio was not above 0.25.

In the case of FYYT, the enrichment ratio is not above 0.25.

In the case of KMHP, the enrichment ratio was not above 0.25.

With KGPG, the enrichment ratio is not above 0.25. As for ERRF, the enrichment ratio is not above 0.25.

Take RTIK: the enrichment ratio is not above 0.25. With WRRG, the enrichment ratio is not above 0.25. Take SQAW: the enrichment ratio was not above 0.25. The result for VNKC reads not above 0.25; that for AHLM, 12.1. Take IQHA: the enrichment ratio is not above 0.25.

With FVKP, the enrichment ratio is not above 0.25. Turning to EDKV, the enrichment ratio is not above 0.25. The figure for VALC is 5.37; for RKIH it is not above 0.25; for IHIE it is not above 0.25. Regarding PDLA, the enrichment ratio is not above 0.25. Turning to HCYH, the enrichment ratio is not above 0.25. VVFA: the enrichment ratio is not above 0.25. Regarding MHGD, the enrichment ratio is not above 0.25. The figure for NPQG is not above 0.25; for QYSH it is not above 0.25; for DEAR it is not above 0.25. FLVQ: the enrichment ratio was not above 0.25.

Regarding VNNC, the enrichment ratio was not above 0.25. For the variant RLKK, the enrichment ratio was not above 0.25.

Regarding TDGM, the enrichment ratio was not above 0.25. On to SGVL, for which the enrichment ratio came to 8.84. Regarding MFHD, the enrichment ratio was not above 0.25.

Take HDHG: the enrichment ratio was not above 0.25.

Consider SECL, for which the enrichment ratio was 18.7. Take AFFW: the enrichment ratio is not above 0.25. For the variant LHAE, the enrichment ratio is not above 0.25. For KLAC, the enrichment ratio was not above 0.25. The figure for PGTS is not above 0.25; for AIHW it is not above 0.25; for QAIF it is not above 0.25. For HWTT, the enrichment ratio is not above 0.25. In the case of PTFY, the enrichment ratio was not above 0.25. In the case of HWLH, the enrichment ratio was not above 0.25. QRMW: the enrichment ratio is not above 0.25. As for HFYP, the enrichment ratio is not above 0.25.

With NADP, the enrichment ratio is not above 0.25. Turning to PRIM, the enrichment ratio is not above 0.25. As for SEWT, the enrichment ratio was 13.2. Take FSKE: the enrichment ratio is not above 0.25. For IIVV, the enrichment ratio was not above 0.25. PDKD: the enrichment ratio is not above 0.25. Turning to HNWS, the enrichment ratio was not above 0.25. Turning to QAYC, the enrichment ratio is not above 0.25. As for FECQ, the enrichment ratio was determined as 3.31. As to YLIL, the enrichment ratio was not above 0.25.
